Consider 88 compounds from PMC4336329 (PLoS ONE, 2015).

About 2,200 (0.71%) of roughly 310,000 compounds showed an effect of 50% or more. Effects have a minus sign here. The list shows a part of the results.

human ether-à-go-go-related gene (hERG) potassium channel, sequence (Q12809 whole entry, looked up): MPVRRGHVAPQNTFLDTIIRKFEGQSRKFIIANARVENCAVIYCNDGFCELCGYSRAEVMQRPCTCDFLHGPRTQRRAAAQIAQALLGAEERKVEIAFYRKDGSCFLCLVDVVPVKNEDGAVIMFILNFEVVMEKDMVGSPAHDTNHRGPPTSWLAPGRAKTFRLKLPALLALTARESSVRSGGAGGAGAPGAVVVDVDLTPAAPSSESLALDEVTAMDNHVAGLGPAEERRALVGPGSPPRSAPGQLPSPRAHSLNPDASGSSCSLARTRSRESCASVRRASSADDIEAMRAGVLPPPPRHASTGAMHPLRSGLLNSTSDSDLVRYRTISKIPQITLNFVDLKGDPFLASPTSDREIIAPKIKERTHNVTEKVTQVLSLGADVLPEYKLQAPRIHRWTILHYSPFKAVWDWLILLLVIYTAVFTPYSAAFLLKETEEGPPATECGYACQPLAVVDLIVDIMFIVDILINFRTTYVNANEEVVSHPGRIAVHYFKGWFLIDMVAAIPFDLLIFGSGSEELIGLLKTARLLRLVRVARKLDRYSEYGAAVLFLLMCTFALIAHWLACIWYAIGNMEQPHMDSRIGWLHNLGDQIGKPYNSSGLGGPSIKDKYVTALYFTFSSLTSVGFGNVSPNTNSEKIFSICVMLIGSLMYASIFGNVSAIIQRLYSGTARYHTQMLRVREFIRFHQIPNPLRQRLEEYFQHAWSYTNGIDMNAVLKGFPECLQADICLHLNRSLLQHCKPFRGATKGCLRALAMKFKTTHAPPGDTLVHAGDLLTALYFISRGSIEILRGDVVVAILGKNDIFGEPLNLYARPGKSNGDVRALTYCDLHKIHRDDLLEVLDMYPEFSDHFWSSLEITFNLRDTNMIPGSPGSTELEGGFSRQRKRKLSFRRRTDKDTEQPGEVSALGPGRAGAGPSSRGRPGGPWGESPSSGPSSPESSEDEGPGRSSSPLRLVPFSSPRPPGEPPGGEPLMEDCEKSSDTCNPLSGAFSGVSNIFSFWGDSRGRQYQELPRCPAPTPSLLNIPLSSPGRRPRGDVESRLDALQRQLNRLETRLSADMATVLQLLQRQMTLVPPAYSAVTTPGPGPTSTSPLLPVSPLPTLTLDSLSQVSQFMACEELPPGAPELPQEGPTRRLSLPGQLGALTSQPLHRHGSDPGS

This assay concerns the target human ether-à-go-go-related gene (hERG) potassium channel (human, UniProt Q12809). Description: primary screen, population patch clamp on CHO cells stably expressing hERG.
For `COc1ccc(Br)cc1-c1noc(-c2ccccc2)n1`, the “hERG current change (%, negative = inhibition) at 1uM” value amounted to 16.4%.
`CCc1cccc(NC(=S)N(CCOC)C(C)c2ccco2)c1` (stereo not shown): the “hERG current change (%, negative = inhibition) at 1uM” value amounted to 10.9%.
To `COc1ccc(NC(=O)C2CC(c3ccc(Cl)cc3)=NO2)cc1OC` (stereo not shown) belongs 5.9%; to `COc1ccc(NS(=O)(=O)c2cccc(NC(=O)C3=NN(c4ccccc4)C(=O)CC3)c2)cc1`, 4.1%; to `O=S(=O)(NC1CCCCC1NCc1ccco1)c1ccccc1` (stereo not shown), 8.15%.
To `c1cc(SSc2ccncc2)ccn1` belongs 12.9%; to `CC(=O)NNC(=O)c1csc(Cc2c(Cl)sc3ccc(Cl)cc23)n1`, 7.13%; to `CN(C)S(=O)(=O)c1ccc(C(=O)Nc2ccc(Cl)cc2)cc1`, 8.1%.
Next, `Cc1occc1-c1nnc(SCC(=O)NC2CCCC2)n1-c1ccccc1`: 0.492%; `CC1CN(S(=O)(=O)c2ccc(CN3C(=O)c4cccnc4C3=O)cc2)c2ccccc2O1` (stereo not shown): 12.8%; `CCOC(=O)N1CCN(S(=O)(=O)c2ccc(F)c(C(=O)Nc3ccc(C(C)C)cc3)c2)CC1`: -3.89%.
With `CCCS(=O)(=O)N1CCN(CCCc2ccccc2)CC1.O=C(O)C(=O)O`, the “hERG current change (%, negative = inhibition) at 1uM” value was -1.25%.
Next, `COc1ccccc1CNC(=O)c1ccoc1C`: -1.81%; `CC(=O)Nc1ccc(C(=O)N2CCc3cc4c(cc3C2C)OCCCO4)cc1` (stereo not shown): 10.5%; `COc1cccc(C(=O)NCC(=O)N/N=C/c2c(C)[nH]c3ccccc23)c1`: 11.8%.
To `CCNc1nc(NCC)nc(SCCOc2ccc(C)cc2)n1` belongs 3.98%; to `Cc1cccc(OCC(=O)OCC(=O)N2CCN(C(=O)c3ccco3)CC2)c1C`, -6.12%.
To `O=C(O)c1ccccc1C(=O)OCc1c(-c2ccccc2)ncc2ccccc12` belongs 12.5%; to `COC(=O)c1ccc(NC(=O)NC(=O)Oc2ccccc2)cc1`, 3.44%; to `COc1ccccc1-n1c(SCC(=O)Nc2ccc(C)cc2)nc(O)cc1=O`, 15.7%.
As for `CCOC(=O)c1cnc2ccc(OCC)cc2c1NCc1cccnc1.Cl`, the “hERG current change (%, negative = inhibition) at 1uM” value was -75.3%.
With `CC(=O)Nc1ccc(NC(=O)CSc2nccn2Cc2ccco2)cc1`, the “hERG current change (%, negative = inhibition) at 1uM” value is reported as -14.7%.
Next, `CCN(CC)S(=O)(=O)c1ccc(C(=O)NCCc2ccccn2)cc1`: 10.9%; `COc1cc(OC)c(OC)cc1CN(C)CCc1ccccn1.O=C(O)C(=O)O`: -1.06%.
To `CC(=O)CC(c1ccccc1)S(=O)(=O)c1ccc([N+](=O)[O-])cc1` (stereo not shown) belongs 15.5%; to `O=C1COc2ccc(C(=O)CCl)cc2N1`, 0.663%.
Consider `O=C(OCC(=O)N1CCC(Cc2ccccc2)CC1)c1ccc(CO)cc1`, for which the “hERG current change (%, negative = inhibition) at 1uM” value is listed as -5.29%.
Next, `O=S(=O)([O-])C(c1ccccc1)[n+]1ccccc1` (stereo not shown): 10.6%; `O=c1ccc2cc(S(=O)(=O)Nc3ccc(Br)cc3)ccc2o1`: 15.2%.
To `CCCCn1c(N)c(N(CC(C)C)C(=O)C2CCN(S(=O)(=O)c3ccc(OCC)cc3)CC2)c(=O)[nH]c1=O` belongs 10.1%; to `COc1cccc(CN2CCNC(=O)C2CC(=O)NCCc2cccc(C)n2)c1OC` (stereo not shown), 4.11%.
As to `Cc1ccc(C(=O)Nc2cccc(C(F)(F)F)c2)cc1Nc1cncnc1.O=C(O)C(F)(F)F`, the “hERG current change (%, negative = inhibition) at 1uM” value is on record as -12.9%.
For the compound `CCOc1cc(C(=S)N2CCCCC2)ccc1OS(=O)(=O)c1ccc(Br)cc1`, the “hERG current change (%, negative = inhibition) at 1uM” value came out at 4.26%.
With `N#Cc1ccc(CN2CCN(C(=O)c3cc(C4CC4)nn3-c3ccccc3)CC2)cc1`, the “hERG current change (%, negative = inhibition) at 1uM” value is recorded as -5.21%.
To `COCCNC(=S)Nc1ccc2[nH]c(=O)[nH]c2c1` belongs 7.39%; to `O=C(Nc1ccccc1Cl)c1cc2ccccc2o/c1=N\O`, 6.22%; to `Cc1cc(C)n(-c2ccc(Oc3ccccc3)c(S(=O)(=O)O)c2)n1`, 12.6%.
To `CCCc1ccc2oc(C(=O)N(C)Cc3nccs3)c(C)c2c1` belongs 6.46%; to `CCOc1ccc(/C=N/NC(=O)Cn2ccnc2C)cc1`, 12.4%.
To `COc1ccc(C2C(C#N)=C(N)Oc3cc(C)n(Cc4ccncc4)c(=O)c32)cc1` (stereo not shown) belongs -8.44%.
Consider `CCOc1ccccc1CNC(=O)c1cn(C)c(=O)c2c1c1ccccc1n2C`, for which the “hERG current change (%, negative = inhibition) at 1uM” value came to 6.45%.
Next, `CCC1(C)NC(=O)N(CC(=O)NCC(=O)Nc2c(C)cc(C)cc2C)C1=O` (stereo not shown): 10%.
Next, `COc1cc(OC)cc(C(=O)Nc2ccn(C)n2)c1`: 15.2%.
Next, `O=c1[nH]cccc1-c1nc2ccccc2n1Cc1ccc(F)cc1`: 1.04%; `COc1cccc2sc(Nc3nc(-c4cc5ccccc5oc4=O)cs3)nc12`: 10.7%.
Turning to `COc1ccc(S(=O)(=O)N(C)CC(=O)NC2CCCC2)cc1Cl`, the “hERG current change (%, negative = inhibition) at 1uM” value was determined as 13.2%.
As to `Br.O=C(c1ccc(Br)cc1)c1sc(N2CCOCC2)nc1-c1ccccc1`, the “hERG current change (%, negative = inhibition) at 1uM” value is -5.61%.
Turning to `CCOC(=O)C1=C(CC)Nc2ccccc2N=C1NC(=O)Nc1ccccc1OC`, the “hERG current change (%, negative = inhibition) at 1uM” value worked out at 15.6%.
To `Cn1cc(CN2CCCC(CNC(=O)c3ccc4c(c3)OCO4)C2)c2ccccc21` (stereo not shown) belongs -11.7%.
To `Cc1ccccc1OCC(=O)NC(=S)Nc1ccccc1N1CCN(S(C)(=O)=O)CC1` belongs 8.23%; to `Cc1ccc(S(=O)(=O)N2CCN(C(=O)NCc3ccc(F)cc3)CC2)c(C)c1`, 13.9%.
Consider `CC(=O)Nc1nc(C(F)(F)F)cs1`, for which the “hERG current change (%, negative = inhibition) at 1uM” value is 12.2%.
To `COc1ccc(-c2c(-c3ccc4c(c3)OCO4)noc2C)cn1` belongs 11.8%; to `CC(C)c1ccc(C2NC(C(=O)O)CS2)cc1` (stereo not shown), -4.5%.
Next, `CC(=O)c1cccc(NC(=S)Nc2ccc(F)cc2)c1`: 12.1%.
To `CCCC12CN(C(=O)c3ccc(OC)cc3)CC(C)(CN(C(=O)c3ccc(OC)cc3)C1)C2=O` belongs 8.7%; to `Cc1nc2ccccc2c(=O)n1/N=C/c1ccc(OC(F)F)cc1`, 10.8%.
For the compound `CCn1nc(C)cc1C(=O)NC1CCCc2c1cnn2-c1ccc(C)c(C)c1` (stereo not shown), the “hERG current change (%, negative = inhibition) at 1uM” value is 12.1%.
On to `Nc1c(C(=O)N2CCCCC2)sc2nc3c(cc12)CCCC3`, for which the “hERG current change (%, negative = inhibition) at 1uM” value is on record as 7.24%.
Next, `CCOc1ccc(OCCSc2nc(N)cc(=O)[nH]2)cc1`: 6.35%; `CCOc1ccc(NC(=O)NCc2cccnc2)cc1`: 18.7%; `CC(C)Cc1cc(C(=O)N2CCC(N3CCC(C(=O)N4CCCC4)CC3)CC2)n[nH]1`: 7.43%.
To `CC(C)CCn1nnnc1C(c1ccccc1F)N1CCC(C(N)=O)CC1` (stereo not shown) belongs 9.2%; to `O=C(N/C(=C\c1ccc(Br)cc1)C(=O)N1CCCC1)c1ccccc1F`, -49.5%.
To `CCOC(=O)/C(C#N)=C/c1c(N2CCCCCC2)nc2ccccn2c1=O` belongs 16.3%; to `CSc1ccc(S(=O)(=O)NCC(=O)OCC(=O)N2CCC(C)CC2)cc1[N+](=O)[O-]`, 8.74%; to `Cc1nc2sc(C(c3ccc(Br)cc3)N3CC(C)OC(C)C3)c(O)n2n1` (stereo not shown), 5.48%.
On to `CC(C)CCN(C(=O)CCCSc1nc2ccccc2[nH]1)c1c(N)n(Cc2ccccc2)c(=O)[nH]c1=O`, for which the “hERG current change (%, negative = inhibition) at 1uM” value is recorded as -12.5%.
In the case of `CCOc1ccc(S(=O)(=O)N2CCCC(C(=O)NCCN3CCOCC3)C2)cc1Cl` (stereo not shown), the “hERG current change (%, negative = inhibition) at 1uM” value is listed as -2.37%.
`O=C1NC(=O)/C(=C/c2ccc(-c3cccc([N+](=O)[O-])c3)o2)S1`: the “hERG current change (%, negative = inhibition) at 1uM” value worked out at 20.4%.
Next, `c1ccc2c(c1)CC/C2=N/Nc1nc2ccccc2[nH]1`: 11.1%; `Cc1cc(C(=O)CSc2nc3ccccc3c(=O)n2C)c(C)n1Cc1ccc2c(c1)OCO2`: 9.41%.
To `COc1ccccc1C(=O)Nc1nnc(S(=O)(=O)N2CCCCCC2)s1` belongs 11.7%.
Next, `COCCn1c(CN2CCN(C(=O)c3ccco3)CC2)nc2c1c(=O)n(C)c(=O)n2C`: -2.52%; `Cc1cc(C)cc(OCC(=O)OCC(=O)Nc2c(C)n(C)n(-c3ccccc3)c2=O)c1`: 5.78%; `CN(C)C(=O)c1ccc2c(c1)C1C3CCC(C3)C1C(c1ccccc1)N2` (stereo not shown): 8.03%.
As to `O=C(CSc1nc(N2CCOCC2)nc(N2CCOCC2)n1)Nc1ccccc1F`, the “hERG current change (%, negative = inhibition) at 1uM” value stood at 6.42%.
To `COc1ccc(N2CCN(C(=O)C3Cc4ccccc4CN3C(=O)c3ccco3)CC2)cc1` (stereo not shown) belongs -15.9%; to `CC(C)CN1CCC(=O)N(CCSc2ccccc2)CC1`, -0.191%.
Regarding `Nc1ccc2c(c1)C(=O)Cc1ccccc1S2`, the “hERG current change (%, negative = inhibition) at 1uM” value is recorded as 4.28%.
Next, `CC(C)NC(=O)c1onc(CSc2cccc3ccccc23)c1C(=O)O`: 24.1%.
Next, `C=CCN1C(=O)C2(OCCO2)c2cc(C)ccc21`: 3.37%.
Next, `CC(NC(=O)CN1CCCC1)c1ccccc1` (stereo not shown): 16.4%; `O=C(Cn1cccc1C(=O)c1ccccc1)NCCCc1ccccc1`: 7.87%.
Take `O=C(CCc1ccccc1)NNC(=O)c1cc(Cl)ccc1O`: the “hERG current change (%, negative = inhibition) at 1uM” value is 12.2%.
As to `Cc1ccc2[nH]c(=O)c(CN(CCCN(C)C)C(=O)Nc3ccc(F)cc3)cc2c1`, the “hERG current change (%, negative = inhibition) at 1uM” value is -37%.
Regarding `CCc1c(O)nc(SCC(=O)NCc2ccco2)[nH]c1=O`, the “hERG current change (%, negative = inhibition) at 1uM” value was -0.989%.
Next, `C=CCN(CC=C)C(=O)c1ccncc1`: 4.58%.
